# Experimental data: PubChem BioAssay AID662 (National Center for Advancing Translational Sciences (NCATS), 2007)
# Screen size: about 71,000 compounds; about 1,800 (2.5%) were called active. The inconclusive results got no clear call from the source; some entries with a clear call stand among them for comparison. Calls follow the shape of the dose curve; as a rule, active = well fitted activation curve with a large enough effect in the signal ratio, with a control signal flat (not every such curve was filed as active); inconclusive = small, poorly fitted or top-dose-only effect, or effect the other way, or a change in a side signal; inactive = flat fitted curve, though single readings scatter; the % refers to the signal ratio. A potency beside an inconclusive call is a rough fit, not a confirmed value.
# Experiment: Cell signaling CRE-BLA (Fsk stim); as to activity change, negative = inhibition: % of control where 0% means no effect
# Conditions: CHO CRE-bla reporter (cAMP response element driving beta-lactamase), forskolin EC10, beta-lactamase ratio; activity change, negative = inhibition: at 38.2 µM (top of the series) unless noted
# In short: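 CRE-bla CHO cells stimulated with EC10 NKH 477 (water-soluble forskolin) and compound titrations, 3 h at 37C; beta-lactamase read with CCF4 after 2 h at room temperature. Activity from 460/530 nm emission ratio, AC50 values for positive or negative modulation.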
# Potency is read from the fitted curve at half-maximal effect; tags tell the direction and shape of the fitted curve.
SMILES,"activity change, negative = inhibition",Potency
COc1ncc2nc(-c3cc(F)cc(F)c3)c(=O)n(C[C@H]3CCCO3)c2n1,inactive,–
Fc1ccc(CN2CCCCCCC2)cc1F,inactive,–
O=C1CSC(c2ccccn2)N1c1ccccc1 (stereo unspecified),inconclusive: 3.54%,–
CCn1c(SCCC#N)nnc1-c1ccncc1,inconclusive: 8.22%,–
COc1cccc(C(=O)Nc2c3c(nn2-c2cccc(C)c2C)CS(=O)C3)c1OC (stereo unspecified),–,"inconclusive: 10 µM [rising, single point]"
COC(=O)[C@@]1(Cc2ccc(OC)cc2)[C@H]2c3cc(C(=O)N4CCCC4)n(CCCNc4ncc(C(F)(F)F)cc4Cl)c3C[C@H]2CN1C(=O)c1ccccc1,inconclusive: 18.9%,–
CN(CC(=O)Nc1ccncc1)S(=O)(=O)c1ccc(Cl)cc1,inconclusive: 15.7%,–
CCCc1cc(=O)[nH]c(SCC(=O)CSc2nc(CCC)cc(=O)[nH]2)n1,–,"inconclusive: 5.01 µM [falling, single point]"
Cc1cc(C)n(/N=C/c2c[nH]c3ccccc23)c(=O)c1,inconclusive: -10.7% [at 7.6 µM],–
COc1ccc(C(=O)/C(C)=N/O)cc1OC,inconclusive: 23.9%,–
Cn1cnnc1SCc1ccc(C#N)cc1Cl,inconclusive: -9.73% [at 7.6 µM],–
Cc1cccc(Cn2c(SCCO)nc3c2c(=O)n(C)c(=O)n3C)c1,–,"inconclusive: 12.6 µM [rising, single point]"
Cn1c(=O)c2c(nc(CN3CCCCC3)n2Cc2c(F)cccc2Cl)n(C)c1=O,–,active: 12.6 µM
CCOC(=O)c1c(NC(=O)Cc2cccs2)sc(C)c1C,–,"inconclusive: 5.01 µM [rising, partial curve]"
CCCCC(CC)Cn1c2nc3ccccc3nc2c2c(=N)oc(C)nc21 (stereo unspecified),inactive,–
COc1c(F)c(F)c(C(=O)Nc2ccc(NC(=O)c3ccco3)cc2)c(F)c1F,inactive,–
CNc1ccnc(-c2ccccc2C(F)(F)F)n1,inactive,–
CCCSc1nc(C)c(-c2csc(C(C#N)=C3CCCC3)n2)cc1C#N,inconclusive: 19.9%,–
O=c1c2cc(N3CCOCC3)ccc2[nH]c(=S)n1CCCN1CCN(c2ccccc2F)CC1,inactive,–
O=C(O)CSC12CC3CC(C1)CC(C(=O)O)(C3)C2,inactive,–
O=C(Nc1cc(C(F)(F)F)ccc1N1CCOCC1)c1ccc2ccccc2n1,–,"inconclusive: 6.31 µM [rising, partial curve]"

SMILES,"activity change, negative = inhibition",Potency
COc1cccc(C(=O)CSc2nnnn2C)c1,–,"inconclusive: 5.01 µM [falling, single point]"
Cc1cccn2c(=O)c3cc(C#N)c(=O)n(CCCN4CCOCC4)c3nc12,–,active: 10 µM
CCN(CC)C(=O)Oc1ccc2c(=O)c(-c3ccc(OC)cc3)c(C)oc2c1,inactive,–
NC(=O)/N=C(\N)NC(=O)c1ccccc1,inactive: 4.49% [at 7.6 µM],–
Cc1ccc2nc3c(cc(C(N)=S)c(=N)n3CCCOC(C)C)c(=O)n2c1,–,active: 10 µM
COCCN1Cc2cccc(C(=O)Nc3cc(OC)ccc3OC)c2C1=O,–,active: 10 µM
O=c1cc(Cn2ccnc2)c2cc3c(cc2o1)CCC3,–,"inconclusive: 15.8 µM [rising, single point]"
COc1ccc2cc3cc(C(=O)NCC4COc5ccccc5O4)oc3nc2c1 (stereo unspecified),–,"inconclusive: 10 µM [rising, single point]"
CN(C)CCCN1C(=O)C(O)=C(C(=O)c2cccs2)C1c1ccccn1 (stereo unspecified),inactive,–
CC(SC1CCCC1)C(=O)NC(C)(C#N)C(C)C (stereo unspecified),inactive,–
CC(=O)NCCn1c(SCC(=O)NCCC2=CCCCC2)nc2ccccc2c1=O,inconclusive: -17.7%,–
O=C(OCC(COC(=O)c1ccccc1)(COC(=O)c1ccccc1)COC(=O)c1ccccc1)c1ccccc1,inconclusive: 9.02%,–
CN(C)C/C=C(\c1ccc(Br)cc1)c1cccnc1,inactive,–
CCOC(=O)Cc1csc(NC(=O)CS(=O)(=O)Cc2ccccc2)n1,–,"inconclusive: 15.8 µM [rising, single point]"
Cc1nn2c3c(cnc2c1-c1ccccc1)C(=O)CCC3,inconclusive: 4.02%,–
CC(C)Sc1nc2c(cnn2-c2ccccc2)c(=O)[nH]1,inactive,–
CCSc1ncc(C#N)c(=O)[nH]1,inconclusive: -14.2%,–
CCCNC(=O)c1cccc(COCC(F)(F)C(F)F)c1,inconclusive: -24.8%,–
Nc1nonc1-c1nc2ccccc2n1Cc1ccc(F)cc1Cl,inactive,–
CCOC1OC2C(CO)OC(n3cnc4c(N)ncnc43)C2O1 (stereo unspecified),inconclusive: 24%,–
COc1ccccc1-n1c(SCC(N)=O)nnc1-c1ccccc1,inactive,–

SMILES,"activity change, negative = inhibition",Potency
CC(C)C[C@@H](CC(=O)N[C@@H](CCC(=O)O)CC(=O)O)NC(=O)[C@@H]1CCCC[C@H]1NC(=O)C[C@H](CCCN)NC(=O)C[C@H](CO)NC(=O)[C@@H]1CNCC[C@H]1N,inconclusive: -9%,–
CCNc1nc(N)nc(Oc2ccc(OCCOc3ccccc3)nn2)n1,–,"inconclusive: 10 µM [rising, partial curve]"
CO[C@@H]1C[C@H](O[C@H]2[C@@H](C)[C@H](O[C@@H]3O[C@@H](C)C[C@@H](N(C)C)[C@@H]3OC(C)=O)[C@H](C)C[C@]3(CO3)C(=O)[C@H](C)[C@H](OC(C)=O)[C@H](C)[C@H](C)OC(=O)[C@@H]2C)O[C@H](C)[C@@H]1OC(C)=O,inactive,–
COc1ccc(CCNc2oc(-c3ccc(OC)c(OC)c3)nc2C#N)cc1,–,"inconclusive: 1.26 µM [rising, full curve]"
CCc1ccc2[nH]c(=O)c(CN(CCCN3CCOCC3)C(=O)Nc3ccc(F)cc3)cc2c1,–,"inconclusive: 10 µM [rising, single point]"
Cc1ccc(-c2ccc(=O)n(CC(=O)NCCN3C(C)CCCC3C)n2)cc1 (stereo unspecified),inactive,–
CC(C)(C)c1ccc2c(c1)OCC(C(=O)O)O2 (stereo unspecified),inactive,–
CCOC(=O)CCc1c(C)nc2c(c(C)nn2C(C)(C)C)c1C,inactive,–
Cc1nc2cc(N3CCCCC3)c(NC(=O)c3cccnc3)cc2c(=O)n1Cc1ccccc1,–,"inconclusive: 3.16 µM [rising, partial curve]"
COc1cc(C)nc(NS(=O)(=O)c2ccccc2)n1,inactive,–
COCCNC(=O)c1noc2c1CCc1cc(OC)ccc1-2,–,"inconclusive: 15.8 µM [rising, single point]"
O=C(C1CCC1)N1CCc2cc(S(=O)(=O)NCc3cccnc3)ccc21,inconclusive: 13.4%,–
CN(C)c1nccc(Nc2ccccc2)c1C#N,inconclusive: 25.6%,–
CCNc1nnc(-c2ccccc2OC)s1,inactive,–
Nc1nc2c(c(=O)[nH]1)CN(c1ccc(S(N)(=O)=O)cc1)CN2,inactive: -0.283% [at 7.6 µM],–
CCc1cc(=O)oc2cc(OC(C)=O)cc(OC(C)=O)c12,–,"inconclusive: 12.6 µM [rising, single point]"
Cn1c(=O)c2c(nc(SCCCC#N)n2Cc2c(F)cccc2Cl)n(C)c1=O,–,"inconclusive: 10 µM [rising, partial curve]"
O=C(CC1(O)CCCCC1)OC1CCCC1,inconclusive: -6.52% [at 7.6 µM],–
COc1ccccc1-c1nnc2sc(COc3ccc(F)cc3)nn12,–,"inconclusive: 25.1 µM [rising, single point]"
c1ccc(C(c2ccccc2)N2CC3(CCNCC3)C2)cc1,inactive,–
O=C(Nc1cccc(F)c1)N1CCC2(CCNCC2)CC1,inactive,–

SMILES,"activity change, negative = inhibition",Potency
CC(C)CNS(=O)(=O)c1ccc(CCC(=O)O)cc1,inconclusive: 4.17%,–
CCCn1c(Nc2nc3ccccc3n2C)nc2ccccc21,–,"inconclusive: 5.01 µM [rising, single point]"
CCN(Cc1cc2ccccc2[nH]c1=O)C(=O)C1CCCCC1,inconclusive: 22.5%,–
COc1ccccc1CCn1c(=O)c(-c2ccc(Cl)cc2)nc2cncnc21,–,"inconclusive: 15.8 µM [rising, partial curve]"
CCOC(=O)C(C(=O)OCC)C1N=C(N)N=C2Oc3ccccc3N21 (stereo unspecified),inactive,–
COc1ccc(S(=O)(=O)CCC(=O)NCCc2ccc(S(N)(=O)=O)cc2)cc1,inconclusive: -9.2%,–
Cc1ccc(Cn2nnc3c(=O)[nH]c(C4CCN(C(=O)c5cccs5)CC4)nc32)cc1,–,"inconclusive: 12.6 µM [rising, single point]"
Cc1c(C(=O)OC2CCCC2C)[nH]c2c1C(=O)CCC2 (stereo unspecified),–,"inconclusive: 10 µM [rising, partial curve]"
CCOC(=O)N1CCC(N2Cc3cccc(C(=O)NCc4ccc(OC)cc4)c3C2=O)CC1,inconclusive: 12.4%,–
COC(=O)[C@H](C)NC(=O)Nc1ccc(OC)c(OC)c1,–,"inconclusive: 25.1 µM [rising, single point]"
O=C(C1CCN(c2ccc(N3CCOCC3)nn2)CC1)N1CCN(c2ccc(F)cc2)CC1,inactive,–
COc1ccc(C(=O)Nc2cc(-c3nn4c(C)nnc4s3)ccc2C)cc1,–,"inconclusive: 10 µM [rising, partial curve]"
Cc1ccc(S(=O)(=O)N2CCC(C(=O)OC(C)C(=O)NCc3ccc4c(c3)OCO4)CC2)cc1 (stereo unspecified),inconclusive: -24%,–
COCCNc1nc(-c2ccc(N(C)C)cc2)nc2ccccc12,–,"inconclusive: 6.31 µM [rising, partial curve]"
CC1Cc2nc(SCC(=O)Nc3ccc(F)cc3F)n(C)c(=O)c2S1 (stereo unspecified),inconclusive: 10.4%,–
COc1ccc(CNS(=O)(=O)c2ccc3oc(C(=O)O)c(C)c3c2)cc1,inconclusive: -2.96%,–
CCOc1ccc(C(=O)NCc2cccnc2)cc1,inconclusive: 20.3% [at 7.6 µM],–
O=C(c1cccs1)N1CCCC(c2nc(-c3ccc(F)cc3)no2)C1 (stereo unspecified),inconclusive: 16.5%,–
